The values that follow come from ChEMBL document CHEMBL4888484, “Replenishing the malaria drug discovery pipeline: Screening and hit evaluation of the MMV Hit Generation Library 1 (HGL1) against asexual blood stage Plasmodium falciparum ,using a nano luciferase reporter read-out” (2022).

The whole screen tested about 150,000 compounds, of which about 540 (0.36%) showed an effect of 50% or more. This is one part of the list.

The test deals with Plasmodium falciparum. The test can be described thus: Primary screen in NF54 nanoGlo assay, in single point, at 2uM, 72h; a lower Z score goes with more inhibition. The class given is functional, Erythrocyte. As to conditions: timepoint 72 hour.
Take `Cc1nc(C(=O)NCc2ccncc2)c(C)n1C1CCN(S(C)(=O)=O)CC1`: the % Inhibition (usually the relative decrease from the control value, in per cent) was -9% and the Z score came to 1.53.
For `O=C(C[C@H]1C(=O)NCCN1C1Cc2ccccc2C1)NCCN1CCOC1=O` the same measures were -16% and 1.43.
For the compound `Cn1nc(C(=O)N2CCOCC2)c2ccccc2c1=O`, the “% Inhibition” value is given as -12% and the Z score is listed as 1.56.
With `FC(F)(F)c1cc2c(N3CCC(c4cn[nH]c4)CC3)nccn2n1`, the “% Inhibition” value is -8% and the Z score came out at 1.
For `CCn1nc(C)c(CNC(=O)c2cc(C)nc(C(F)(F)F)n2)n1` the same measures were 13% and -1.86.
For `C[C@@H](CC1CCCC1)C(=O)N1CCC2(CCO2)CC1` the same measures were -6% and 0.87.
For `O=C(NCCC1CCCO1)NC1CC2CCC1C2` (configuration not stated) the same measures were 4% and -0.52.
As for `CN(C)S(=O)(=O)c1ccc2c(c1)CCCN2`, the “% Inhibition” value was -16% and the Z score was determined as 2.11.
With `Cc1ccc(OCC(=O)Nc2nccnc2C2CC2)cc1`, the “% Inhibition” value was determined as 26% and the Z score was -2.92.
For `CNS(=O)(=O)c1ccc(-c2nccn2CCS(C)(=O)=O)cc1` the same measures were -9% and 1.4.
For `c1cnc(NCCNc2ncccn2)nc1` the same measures were 7% and -1.25.
For `CCc1onc(C)c1NC(=O)Nc1cccc(N(C)C)c1C` the same measures were -7% and 1.03.
Take `Cc1nsc(N2CC(O)C(O)C2)n1` (configuration not stated): the “% Inhibition” value is -9% and the Z score is recorded as 1.02.
For the compound `CCn1nc(C)cc1C(=O)Oc1cccc(-n2cccn2)c1`, the “% Inhibition” value was -6% and the Z score amounted to 1.
For the compound `COCCN(CC1CC1)C(=O)c1cccn(C)c1=O`, the “% Inhibition” value was 0% and the Z score turned out to be 0.06.
For `CCN(CC(=O)NCc1cccs1)C(=O)c1sc(NC(=O)C(C)(C)C)cc1C` the same measures were -1% and 0.11.
Consider `CN(Cc1csc(-c2ccccc2)n1)C(=O)c1cccnn1`, for which the “% Inhibition” value is 3% and the Z score is listed as -0.52.
For `CC1(C)C[C@@H](c2ccccc2)N(C(=O)c2cn(C3CCOCC3)nn2)C1` the same measures were 2% and -0.26.
For `CN1CCN(C)CC(C(=O)NCCOC2CCCCCC2)C1` the same measures were -5% and 0.94.
On to `CCCn1nc(C)cc1CN(CC)C(=O)c1nn(C)c2c1COCC2`, for which the “% Inhibition” value is reported as -5% and the Z score was found to be 0.59.
`c1cnn(-c2ccc(OCCO[C@@H]3CCCCO3)cc2)c1`: the “% Inhibition” value is recorded as -15% and the Z score was found to be 2.03.
For `Cc1nc(-c2ncc(C(=O)N3Cc4ccccc4C3)c(O)n2)cs1` the same measures were -11% and 1.37.
For `CC(C)CC(=O)Nc1nnc(CC(C)(C)C)s1` the same measures were -14% and 2.71.
Regarding `O=C(CCc1ccc(Br)cc1)NCC1(O)CCOCC1`, the “% Inhibition” value is -6% and the Z score was determined as 0.95.
Take `O=C1CCC(=O)N1CCCn1nc(C(F)(F)F)cc1C1CC1`: the “% Inhibition” value was found to be 19% and the Z score is -2.43.
For `COc1ccc(Cl)cc1Cn1cnc2oc(C)c(C(=O)O)c2c1=O` the same measures were -15% and 3.14.
Regarding `COC(=O)[C@H](CC(C)C)NS(=O)(=O)NCc1ccccc1`, the “% Inhibition” value is -10% and the Z score stood at 1.43.
For `C=CCNC(=O)c1ccc(Oc2nccnc2N2CCCCC2)cc1` the same measures were -10% and 1.11.
For `CCN1CCC(CC(=O)N[C@H](Cc2cc(F)c(F)c(F)c2)C(=O)O)CC1` the same measures were -9% and 1.45.
For `O=S(=O)(Cc1ccon1)N(C[C@H]1CCOC1)C1CC1` the same measures were -10% and 2.05.
For `CN(C)[C@@H](C(=O)N1CCC(O)(CO)CC1)c1ccc2c(c1)OCO2`, the “% Inhibition” value is recorded as -7% and the Z score was 0.65.
For `COc1ccc(-c2c(C)noc2NC(C)=O)cc1S(=O)(=O)NC1CCCC1` the same measures were -14% and 2.06.
For `CCCCc1ccc(-n2nc3cc(Cl)c(NC(=O)C(c4ccccc4)c4ccccc4)cc3n2)cc1` the same measures were -5% and 0.79.
Take `Cc1ccc(N2C(=O)N[C@H]3C[C@]2(C)Oc2ccc(Cl)cc23)c(C)c1`: the “% Inhibition” value was -5% and the Z score turned out to be 0.84.
For `COc1ncccc1C(=O)NCc1ccc(N2CCCC2)cc1` the same measures were -9% and 0.78.
For `CC(C)(C)n1ncc2c(=O)[nH]c(NCC=Cc3ccccc3)nc21` the same measures were 3% and -0.5.
For `Cc1cccc(Cn2nc(CC(N)=O)nc2CCn2cncn2)c1` the same measures were 7% and -0.67.
With `O=C(CCn1nc2ccccn2c1=O)Nc1cnccc1Nc1ccc(F)cc1`, the “% Inhibition” value is -25% and the Z score was 4.76.
Regarding `CN1CCC[C@H](C(=O)NCCc2ccnn2C)C1`, the “% Inhibition” value is listed as -8% and the Z score came out at 1.09.
For `O=C(OCCOc1cccnc1)c1ccn2cncc2c1` the same measures were -12% and 1.39.
Turning to `NC(=O)c1ccc(CNC(=O)C2CC(O)(C3CCCCC3)C2)o1` (configuration not stated), the “% Inhibition” value is given as -10% and the Z score is recorded as 1.27.
For `COc1ccc(Nc2nc(N3CCOCC3)c3cnn(-c4ccccc4)c3n2)cc1` the same measures were 16% and -2.02.
For `CCOCCCNC(=O)Nc1cccc(Br)c1` the same measures were 23% and -2.92.
For `COCCCC(=O)NC[C@H](O)c1c(Cl)cccc1Cl` the same measures were 6% and -0.77.
As to `CCC[C@H](C)N1CC2(CCN(Cc3cnc(C(C)C)nc3)CC2)OC1=O`, the “% Inhibition” value is recorded as -9% and the Z score was 1.05.
`CC(O)CCCNC(CC1CCN(C(=O)OC(C)(C)C)CC1)c1cccnc1` (configuration not stated): the “% Inhibition” value is -1% and the Z score is reported as 0.15.
Take `Cc1ccc(C(=O)N2CCCC[C@H]2c2nnc(-c3ccncc3)[nH]2)cn1`: the “% Inhibition” value was -12% and the Z score came to 2.36.
For `Cc1ccc(NC(=O)CN2CC[C@H](N3CCCCC3)C2)cc1F` the same measures were -11% and 2.01.
For `CC(C)CNC(=O)[C@H](C)Nc1cccc(C(N)=O)c1` the same measures were 1% and -0.1.
For `CCc1nsc(NCc2nnc3ccc(N(C)C)nn23)n1` the same measures were -4% and 0.72.
Take `CC(=O)N[C@@H]1CC[C@H]2CCOc3ccccc3C(=O)N3CCN(C(C)C)C[C@H]3C(=O)NC[C@H]1O2`: the “% Inhibition” value is given as -1% and the Z score amounted to 0.15.
For `Cc1cc(C)c(CN2[C@H]3CCNC[C@@H]2CC3)c(-n2cccn2)c1` the same measures were 9% and -1.3.
For `O=C(Nc1ccc(Oc2ccccc2)cn1)[C@@H]1CCCc2[nH]ncc21`, the “% Inhibition” value was -4% and the Z score amounted to 0.43.
For `Cc1ccc(Nc2nn(CN3CCCC3)c(=S)s2)cc1Cl` the same measures were -16% and 3.08.
For `O=C(C(=O)N1CCO[C@@H](Cc2cccc3ccccc23)C1)c1ccco1` the same measures were 7% and -0.95.
For `O=C1[C@@H]2C[C@@H](O)CN2C2(CN(Cc3ccccn3)C2)C(=O)N1Cc1ccccc1Cl` the same measures were -3% and 0.53.
As to `O=C(OC1CS(=O)(=O)CC1Nc1ccccc1)c1ccc(Cl)cc1` (configuration not stated), the “% Inhibition” value is 4% and the Z score was -0.54.
For `CN(Cc1ccccc1)c1nc2c(c(Oc3ccc(F)cc3)n1)CN(C(=O)Nc1cccc(Cl)c1)CC2` the same measures were 0% and 0.02.
On to `CC(C)(C)OC(=O)N[C@@H]1CCCCC[C@H]1NC(=O)c1cnn(C(C)(C)C)c1`, for which the “% Inhibition” value is listed as -13% and the Z score is on record as 1.3.
For `COC(=O)[C@@H](c1cc(F)c(F)c(F)c1)N(C)Cc1nnc(C)n1C` the same measures were -6% and 0.8.
For `Cc1ncc(CO)c(CN(C)[C@@H](C)c2ccccn2)c1O` the same measures were -10% and 1.02.
For `Cc1cc(C(=O)N2CC[C@@]3(CCCN(CCc4ccccc4)C3)C2)n[nH]1` the same measures were -13% and 2.45.
With `C[C@@H]1CN(C(=O)CN(C)Cc2ccc(F)cc2)CC[C@@]1(O)C1CCOCC1`, the “% Inhibition” value was -9% and the Z score is 1.65.
Consider `CCOCCN(C)C(=O)c1cnn(C(C)(C)C)c1`, for which the “% Inhibition” value is listed as -2% and the Z score was found to be 0.15.
For `CCOC1CC1C(=O)N1CCc2ccc(OC)cc2C1` (configuration not stated) the same measures were -5% and 0.83.
For `CC(Cc1cccc(F)c1)C(=O)NCC(C)N(C)C(=O)C(C)Cc1cccc(F)c1` (configuration not stated) the same measures were 1% and -0.18.
For `CCCc1cc(N2CCN[C@H](C(=O)Nc3ccc(F)cc3)C2)nc(C)n1` the same measures were -11% and 1.1.
Take `CCCN(CC)c1ccc(C(=O)O)cc1`: the “% Inhibition” value was -14% and the Z score is 1.95.
For `CCOc1ccc(NC(=O)c2cnc(N3CC=C(c4ccccc4)CC3)nc2N)cc1` the same measures were 35% and -3.93.
For `C[C@H]1Cc2ccccc2N1CCNC(=O)Cc1cncnc1` the same measures were -8% and 1.33.
For `Cc1ccc(C(=O)Nc2cccc(NC(=O)c3ccc(C)o3)n2)o1` the same measures were -10% and 1.32.
Take `Cc1occc1C(=O)Nc1cnccc1N1CCCCC1`: the “% Inhibition” value came out at 0% and the Z score is given as -0.03.
For `CC(C)NC(=O)CCNC(=NC1CC1)NCc1ccccc1` the same measures were 13% and -2.08.
On to `N/C(c1nonc1N)=[N+](/[O-])C(=O)c1sc2ccccc2c1Cl`, for which the “% Inhibition” value is recorded as 20% and the Z score is given as -2.53.
For `CCCc1ccc(OCCNC(=O)[C@H]2CC23CCNCC3)cc1`, the “% Inhibition” value was 2% and the Z score is -0.33.
For `O=C(NCc1ccncc1)NC1CCC2(CCOCC2)CC1` the same measures were -14% and 2.57.
For `Cc1ccc(S(=O)(=O)Nc2ccc(C)n(CC(=O)N(C)Cc3ccco3)c2=O)cc1` the same measures were -9% and 1.22.
In the case of `Cc1ccc(Br)c(C(=O)N[C@@H](CO)c2cncn2C)n1`, the “% Inhibition” value is listed as -4% and the Z score is listed as 0.76.
For `CCc1ncc(CN2CCC3(CC2)C[C@@H](c2ccccc2)C(=O)N(C)C3)cn1` the same measures were -9% and 1.2.
For `CCCC[n+]1nn(-c2cccc(OC)c2)c([O-])c1C(=O)Nc1cccc(OC)c1` the same measures were -5% and 0.73.
Take `O=C1COc2ccccc2N1c1c(-c2ccccc2)c2ccccc2[nH]c1=O`: the “% Inhibition” value was -9% and the Z score is recorded as 1.01.
For `COc1ccccc1N(CC(F)(F)F)C(=O)c1nc(C)sc1C` the same measures were -12% and 1.73.
With `COC1(C(C)NCC(C)(O)c2ccsc2)CCCC1` (configuration not stated), the “% Inhibition” value was -5% and the Z score was 0.82.
For `CN1CCCN(C(=O)NC(C)(C)C)c2nc3ccccc3nc21` the same measures were -1% and 0.18.
Consider `CC(C)(C)c1cn2c3ccccc3nc2n1CCN1CCCCC1`, for which the “% Inhibition” value is -11% and the Z score was determined as 1.37.
For `Clc1cc2c(cc1CN1CC[C@H]3CC[C@@H](C1)N3)OCO2` the same measures were -16% and 1.62.
